From patent EP4431529A1 (Sunshine Guojian Pharmaceutical (Shanghai) Co., Ltd., dated 2024) come the findings set out here.

For assay [1], the target named is T1, VEGF165 (UniProt P15692-4 27-191).
T1 construct: treated as one molecule; also called VEGF protein; VGEF
T1 sequence (looked up): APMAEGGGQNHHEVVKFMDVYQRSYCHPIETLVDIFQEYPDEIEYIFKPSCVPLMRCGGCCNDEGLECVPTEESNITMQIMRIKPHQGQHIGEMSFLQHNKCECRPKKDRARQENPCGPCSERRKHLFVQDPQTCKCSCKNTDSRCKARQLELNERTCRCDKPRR
In words: SPR, Biacore 8K, fusion protein captured on Protein A, VEGF165 as analyte. (SPR reads the build-up and loss of mass on a sensor chip optically.)

In assay [2] the target is T2, IL-17A protein (human, UniProt Q16552 24-155).
T2 construct: Embodiments 3 and 4 say only 'IL-17A'; Treated as one molecule; also called human IL-17A
T2 sequence (looked up): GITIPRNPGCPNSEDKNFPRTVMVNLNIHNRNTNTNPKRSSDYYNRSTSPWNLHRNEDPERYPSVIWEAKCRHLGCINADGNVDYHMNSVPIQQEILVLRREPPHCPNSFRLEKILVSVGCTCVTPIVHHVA
In words: ELISA, IL-17A coated on the plate. A general note: In an ELISA, binding on a coated surface is turned into a signal by an enzyme label.

The target in assay [3] is T1, VEGF165. In words: ELISA, VEGF coated on the plate.
Assay [4] deals with T2, IL-17A protein. Kind of assay: SPR, Biacore 8K, fusion protein captured on Protein A, IL-17A as analyte.
Assay [5] deals with T2, IL-17A protein. Kind of assay: cell-based or functional assay.

B1: anti-IL-17/VEGF bifunctional fusion protein 17V01 (other)
heavy: EVQLVESGGGLVQPGGSLRLSCAASGFTFSSFDMSWGRQAPGKRLEWVAFMSSGGSTYYPDSVKGRFTISRDNSKNTLYLQMNSLRAEDTAVYYCARGERYGSYWGQGTLVTVSSASTKGPSVFPLAPSSKSTSGGTAALGCLVKDYFPEPVTVSWNSGALTSGVHTFPAVLQSSGLYSLSSVVTVPSSSLGTQTYICNVNHKPSNTKVDKKV[skipping human IgG1 Fc]GGGGSGGGGSDTGRPFVEMYSEIPEIIHMTEGRELVIPCRVTSPNITVTLKKFPLDTLIPDGKRIIWDSRKGFIISNATYKEIGLLTCEATVNGHLYKTNYLTHRQTN
light: DIQMTQSPSSLSASVGDRVTITCKASDHINNWLAWYQQKPGKAPKLLISGATSLETGVPSRFSGSGSGTDYTLTISSLQPEDFATYYCQQYWSTPFTFGSGTKLEIKRTVAAPSVFIFPPSDEQLKSGTASVVCLLNNFYPREAKVQWKVDNALQSGNSQESVTEQDSKDSTYSLSSTLTLSKADYEKHKVYACEVTHQGLSSPVTKSFNRGEC
As usually defined, the Kd is the concentration at which binding is half-saturated. The low end stands for tighter binding, the high end for weaker binding. One may read the koff as the first-order rate constant of dissociation. Usually kon stands for the rate constant with which the complex forms. Read a high kon as faster complex formation. For orientation: EC50 means the concentration giving half of the maximal effect. Low readings indicate a more potent agent, high ones a less potent agent. With B1, in the assay with VEGF165 [1], the equilibrium dissociation constant (Kd) stood at 0.0193 nM, the koff stood at 0.000786 s⁻¹ and the kon was 4.08e+07 M⁻¹ s⁻¹. In addition, the EC50 with IL-17A protein [2] is 0.052 nM. A half-maximal response with VEGF165 [3] (EC50) required 0.379 nM. In the assay with IL-17A protein [4], this molecule displayed a Kd of 0.0185 nM, an off-rate (koff) of 4.72e-05 s⁻¹ and an association rate constant (kon) of 2.55e+06 M⁻¹ s⁻¹.

B2: anti-IL-17/VEGF bifunctional fusion protein 17V02 (other)
heavy: DTGRPFVEMYSEIPEIIHMTEGRELVIPCRVTSPNITVTLKKFPLDTLIPDGKRIIWDSRKGFIISNATYKEIGLLTCEATVNGHLYKTNYLTHRQTNGGGGSGGGGSGGGGSGGGGSEVQLVESGGGLVQPGGSLRLSCAASGFTFSSFDMSWGRQAPGKRLEWVAFMSSGGSTYYPDSVKGRFTISRDNSKNTLYLQMNSLRAEDTAVYYCARGERYGSYWGQGTLVTVSS[skipping human IgG1 constant region]
light: DIQMTQSPSSLSASVGDRVTITCKASDHINNWLAWYQQKPGKAPKLLISGATSLETGVPSRFSGSGSGTDYTLTISSLQPEDFATYYCQQYWSTPFTFGSGTKLEIKRTVAAPSVFIFPPSDEQLKSGTASVVCLLNNFYPREAKVQWKVDNALQSGNSQESVTEQDSKDSTYSLSSTLTLSKADYEKHKVYACEVTHQGLSSPVTKSFNRGEC
As for B2, the figures for the concentration giving a half-maximal response (EC50) with IL-17A protein [2] and in the assay with VEGF165 [3] were 0.062 nM and 0.327 nM, respectively.

B3: anti-IL-17/VEGF bifunctional fusion protein 17V06 (other)
heavy: EVQLVESGGGLVQPGGSLRLSCAASGFTFSSFDMSWGRQAPGKRLEWVAFMSSGGSTYYPDSVKGRFTISRDNSKNTLYLQMNSLRAEDTAVYYCARGERYGSYWGQGTLVTVSSASTKGPSVFPLAPSSKSTSGGTAALGCLVKDYFPEPVTVSWNSGALTSGVHTFPAVLQSSGLYSLSSVVTVPSSSLGTQTYICNVNHKPSNTKVDKKV[skipping human IgG1 Fc]GGGGSGGGGSDTGRPFVEPYSEIPEIIHMTEGRELVIPCRVTSPNITVTLKKFPLDTLIPDGKRIIWDSRKGFIISNATYKEIGLLTCEATVNGHLYKTNYLTHRQTN
light: DIQMTQSPSSLSASVGDRVTITCKASDHINNWLAWYQQKPGKAPKLLISGATSLETGVPSRFSGSGSGTDYTLTISSLQPEDFATYYCQQYWSTPFTFGSGTKLEIKRTVAAPSVFIFPPSDEQLKSGTASVVCLLNNFYPREAKVQWKVDNALQSGNSQESVTEQDSKDSTYSLSSTLTLSKADYEKHKVYACEVTHQGLSSPVTKSFNRGEC
In the assay with VEGF165 [1], B3 gave a Kd of 0.0153 nM, a dissociation rate constant (koff) of 0.000582 s⁻¹ and a kon of 3.79e+07 M⁻¹ s⁻¹. The “IC50 of blocking IL-17A-induced IL-6 secretion from HeLa cells” value with IL-17A protein [5] was found to be 0.778 nM. In the assay with IL-17A protein [4], this molecule gave a Kd of 0.0225 nM, a koff of 5.13e-05 s⁻¹ and a kon of 2.28e+06 M⁻¹ s⁻¹.

B4: anti-IL-17/VEGF bifunctional fusion protein 17V05 (other)
heavy: EVQLVESGGGLVQPGGSLRLSCAASGFTFSSFDMSWGRQAPGKRLEWVAFMSSGGSTYYPDSVKGRFTISRDNSKNTLYLQMNSLRAEDTAVYYCARGERYGSYWGQGTLVTVSSASTKGPSVFPLAPSSKSTSGGTAALGCLVKDYFPEPVTVSWNSGALTSGVHTFPAVLQSSGLYSLSSVVTVPSSSLGTQTYICNVNHKPSNTKVDKKV[skipping human IgG1 Fc]GGGGSGGGGSDTGRPFVEAYSEIPEIIHMTEGRELVIPCRVTSPNITVTLKKFPLDTLIPDGKRIIWDSRKGFIISNATYKEIGLLTCEATVNGHLYKTNYLTHRQTN
light: DIQMTQSPSSLSASVGDRVTITCKASDHINNWLAWYQQKPGKAPKLLISGATSLETGVPSRFSGSGSGTDYTLTISSLQPEDFATYYCQQYWSTPFTFGSGTKLEIKRTVAAPSVFIFPPSDEQLKSGTASVVCLLNNFYPREAKVQWKVDNALQSGNSQESVTEQDSKDSTYSLSSTLTLSKADYEKHKVYACEVTHQGLSSPVTKSFNRGEC
In the assay with VEGF165 [1], B4 came in with a Kd of 0.011 nM, a dissociation rate constant (koff) of 0.000432 s⁻¹ and a kon of 3.94e+07 M⁻¹ s⁻¹. For the same molecule, the “IC50 of blocking IL-17A-induced IL-6 secretion from HeLa cells” value with IL-17A protein [5] was determined as 0.726 nM. In the assay with IL-17A protein [4], this molecule yielded a Kd of 0.0184 nM, a koff of 5e-05 s⁻¹ and a kon of 2.72e+06 M⁻¹ s⁻¹.

B5: anti-IL-17/VEGF bifunctional fusion protein 17V03 (other)
heavy: EVQLVESGGGLVQPGGSLRLSCAASGFTFSSFDMSWGRQAPGKRLEWVAFMSSGGSTYYPDSVKGRFTISRDNSKNTLYLQMNSLRAEDTAVYYCARGERYGSYWGQGTLVTVSS[skipping human IgG1 constant region]
light: DIQMTQSPSSLSASVGDRVTITCKASDHINNWLAWYQQKPGKAPKLLISGATSLETGVPSRFSGSGSGTDYTLTISSLQPEDFATYYCQQYWSTPFTFGSGTKLEIKRTVAAPSVFIFPPSDEQLKSGTASVVCLLNNFYPREAKVQWKVDNALQSGNSQESVTEQDSKDSTYSLSSTLTLSKADYEKHKVYACEVTHQGLSSPVTKSFNRGECGGGGSGGGGSDTGRPFVEMYSEIPEIIHMTEGRELVIPCRVTSPNITVTLKKFPLDTLIPDGKRIIWDSRKGFIISNATYKEIGLLTCEATVNGHLYKTNYLTHRQTN
As to B5, the values for the EC50 with IL-17A protein [2] and with VEGF165 [3] were 0.041 nM and 0.326 nM, respectively.

B6: anti-IL-17/VEGF bifunctional fusion protein 17V04 (other)
heavy: EVQLVESGGGLVQPGGSLRLSCAASGFTFSSFDMSWGRQAPGKRLEWVAFMSSGGSTYYPDSVKGRFTISRDNSKNTLYLQMNSLRAEDTAVYYCARGERYGSYWGQGTLVTVSS[skipping human IgG1 constant region]
light: DTGRPFVEMYSEIPEIIHMTEGRELVIPCRVTSPNITVTLKKFPLDTLIPDGKRIIWDSRKGFIISNATYKEIGLLTCEATVNGHLYKTNYLTHRQTNGGGGSGGGGSGGGGSGGGGSDIQMTQSPSSLSASVGDRVTITCKASDHINNWLAWYQQKPGKAPKLLISGATSLETGVPSRFSGSGSGTDYTLTISSLQPEDFATYYCQQYWSTPFTFGSGTKLEIKRTVAAPSVFIFPPSDEQLKSGTASVVCLLNNFYPREAKVQWKVDNALQSGNSQESVTEQDSKDSTYSLSSTLTLSKADYEKHKVYACEVTHQGLSSPVTKSFNRGEC
For the molecule B6, the EC50 stood at 0.105 nM with IL-17A protein [2] and 0.371 nM with VEGF165 [3].

B7: FC-D2 (Fc fusion)
chain: [skipping human IgG1 Fc]GGGGSGGGGSDTGRPFVEMYSEIPEIIHMTEGRELVIPCRVTSPNITVTLKKFPLDTLIPDGKRIIWDSRKGFIISNATYKEIGLLTCEATVNGHLYKTNYLTHRQTNTI
notes: Control in the VEGF ELISA
Take B7: a half-maximal effect with VEGF165 [3] (EC50) was put at 0.397 nM.
